# Out of some 43,000 compounds screened, about 200 (0.47%) were called active. About 12% were inconclusive and are not listed. Calls follow the shape of the dose curve; as a rule, active = well fitted cell-killing curve with a large enough effect; inconclusive = small, poorly fitted or top-dose-only effect, or effect the other way; inactive = flat fitted curve, though single readings scatter. The list shows a part of the results.
# Experiment: Cell viability qHTS assay in S16 Pmp22-F2sN cells; also: nearly all actives have a fitted effect of over 65% in size
# Conditions: S16 Pmp22-F2sN Schwann cells (luciferase reporters placed in the Pmp22 gene) viability, CellTiter-Glo, 24 h; series mostly up to 57.5 µM; activity change, negative = cytotoxicity: at the top concentration
# Procedure, shortened: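 Seed 500-1,000 S16 Pmp22-F2sN cells per well in phenol-red-free DMEM with 10% heat-inactivated FBS; pin-add 23 nL compound; incubate 24 h at 37C; add CellTiter-Glo, wait 15 min protected from light; read luminescence.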
# % is scaled to controls: 0 for no effect and ±100 for the full control effect.
row,SMILES,"activity change, negative = cytotoxicity"
1,Cc1c(-c2nc(-c3ccc4c(c3)OCO4)no2)nnn1-c1ccc(Br)cc1F,inactive: 1.8%
2,O=C(O)c1ccc(CNCc2ccc(Cl)cc2)s1,inactive: -1.07%
3,CCOC(=O)c1c(NC(=O)c2nc(SCC)ncc2Cl)sc(C(C)=O)c1C,inactive: 5.37%
4,Cc1ccc(CNC(=O)Cc2c(C)c3cc4c(C)coc4cc3oc2=O)cc1,inactive: 21.5%
5,O=C(COc1ccccc1Cl)OCc1cc(=O)n2nc(-c3cccs3)sc2n1,inactive: -16.5%
6,CCOc1ccc(NC(=O)c2cc(S(=O)(=O)N3CCCCCC3)cn2C)cc1,inactive: -2.71%
7,Cc1c2cnn(-c3ccccc3)c(=O)c2c(C)n1CC(=O)NCCc1ccc(Cl)cc1,inactive: 0.395%
8,COc1ccc2c(c1)c1c(c(=O)n(-c3ccc(F)c(Cl)c3)c(=O)n1CC(=O)N1CCCC1)n2C,inactive: -12.8%
9,CCc1ccc(NC(=O)CN2CCCN(Cc3cccc(Cl)c3)S2(=O)=O)cc1,inactive: 14.4%
10,COC(=O)c1cc2sc(C)cc2n1CC(=O)Nc1ccc(C)c(C)c1,inactive: -14.9%
11,CC(=O)N1CCc2c(sc3c2c(=O)n(-c2ccccc2)c(=O)n3CC(=O)Nc2ccccc2)C1,inactive: 4.9%
12,COc1cc(CNC(=O)c2ccc3c(c2)N(C)C(=O)C2CCCCN32)cc(OC)c1OC (stereo unspecified),inactive: -3.5%
13,O=C(NCCc1ccc(Cl)cc1)C1CCN(c2ncnc3c2nc2n3CCCCC2)CC1,inactive: -3.29%
14,COc1ccccc1-c1nnc(SCC(=O)Nc2ccccc2F)o1,inactive: 1.4%
15,CC(=O)N1c2ccc(S(=O)(=O)NCC3CCC(C(=O)Nc4ccc(C)cc4)CC3)cc2CC1C (stereo unspecified),inactive: -0.283%
16,CN(Cc1ccco1)C(=O)c1ccc2c(c1)N(Cc1ccccc1F)C(=O)c1ccccc1S2,inactive: 4.22%
17,Cc1ccc(-n2c(=O)c3c4c(sc3n(CC(=O)c3ccc(Cl)cc3)c2=O)CCC4)cc1C,inactive: 3.01%
18,Cc1nc2nc(NC(=O)c3ccccc3F)[nH]n2c(=O)c1Cl,inactive: -0.416%
19,CC(=O)Nc1cccc(NC(=O)CN2C(=O)CCSc3ccccc32)c1,inactive: 20.3%
20,O=C(Nc1ccc2oc(-c3ccc(O)c(Br)c3)nc2c1)c1cc2ccccc2o1,inactive: 8.06%
21,COc1ccc(C2C=C(c3cccc(OC)c3)Nc3c(C(=O)Nc4ccccc4)cnn32)cc1 (stereo unspecified),inactive: -5.75%
22,CCn1c2c(c(=O)n3ncc(C(=O)Nc4cc(Cl)ccc4C)c13)CN(Cc1ccc(OC)cc1)CC2,inactive: -8.46%
23,Cc1ccn2c(Nc3ccc(C(C)C)cc3)c(-c3cccs3)nc2c1,inactive: -5.76%
24,COc1cc(OC)c(NC(=O)C2=C(C)C(=O)OC23CCCCCC3)cc1Cl,inactive: -6.47%
25,O=C(CSc1nnc(-c2cccc(Cl)c2)o1)N1CCc2ccccc21,inactive: 3.71%
26,CC(C)CN(CCCNC(=O)c1cc(=O)[nH]c2ccc(S(=O)(=O)N3CCCCCC3)cc12)CC(C)C,inactive: -7.65%
